± gives the standard deviation of the averaged measurements. Whole data set: some 33,000 sequences, median “E-score (dimensionless, -0.5 to 0.5)” near -0.046, cut for the highest 2% near 0.36. The list shows a part of the results.
What follows are sequences tested on T1, SpTbr T-box DNA-binding domain (GST fusion) (assay: PBM E-score of 8-mer (E-score (dimensionless, -0.5 to 0.5)); Tbr is Tbrain of the sea star Patiria miniata (Pm) or the sea urchin Strongylocentrotus purpuratus (Sp); higher = stronger binding preference; most listed sequences are background and not binding sites). Conditions: the construct has about 5 more residues each side.
T1 sequence: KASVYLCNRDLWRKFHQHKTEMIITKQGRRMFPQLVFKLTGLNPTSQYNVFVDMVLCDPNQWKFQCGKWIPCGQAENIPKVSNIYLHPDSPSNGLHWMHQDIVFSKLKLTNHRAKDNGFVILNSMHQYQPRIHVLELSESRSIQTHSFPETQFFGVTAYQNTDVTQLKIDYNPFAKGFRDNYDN
Procedure, shortened: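 Primer extension turned Universal Agilent oligonucleotide arrays double-stranded. They were incubated with 200 nM protein in PBS (pH 7.5); the protein was a GST-fused Tbr T-box DNA-binding domain expressed in BL21 E. coli at 20 °C and purified on glutathione. Every ungapped 8-mer was scored from the scanned, quantified probe intensities, and the Universal PBM Analysis Suite gave each an enrichment E-score averaged over duplicate arrays.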

| Sequence | PBM E-score of 8-mer |
| --- | --- |
| CATGCCCG | 0.00914 ± 0.03 |
| GCAAAATA | -0.154 ± 0.0035 |
| TAAGAATA | -0.0453 ± 0.085 |
| ATGCGTCG | 0.0377 ± 0.039 |
| AGAATAAA | -0.112 ± 0.013 |
| ACAGAGTG | 0.0268 ± 0.0033 |
| AATGATAT | -0.163 ± 0.029 |
| GTGCCTAA | 0.122 ± 0.027 |
| GACGGCTA | -0.166 ± 0.013 |
| AGGGACAT | -0.254 ± 0.0042 |
| CGTTATGC | -0.147 ± 0.093 |
| CTTACTGA | -0.18623 ± 0.00018 |
| ATCTACAC | 0.148 ± 0.017 |
| CCCGATAG | -0.103 ± 0.00011 |
| ACTTTGTA | -0.104 ± 0.0071 |
| CGGCCTAC | -0.102 ± 0.011 |
| CAATTCCA | -0.0184 ± 0.047 |
| CCCCTACC | -0.113 ± 0.031 |
| ACAAAAAG | 0.0471 ± 0.034 |
| GAAGTAGA | -0.117 ± 0.031 |
| ACAAGCAT | 0.0613 ± 0.017 |
| ATGCTGAC | -0.164 ± 0.06 |
| CGATGCTC | 0.0216 ± 0.0096 |
| TCACTGCA | 0.223 ± 0.032 |
| TAAACGGA | -0.179 ± 0.033 |

| Sequence | PBM E-score of 8-mer |
| --- | --- |
| AGCCACAG | -0.0197 ± 0.024 |
| CGATACGA | -0.0502 ± 0.055 |
| ACTTTTAT | -0.0835 ± 0.068 |
| AATAAGAT | -0.225 ± 0.022 |
| TAGCGTGA | 0.342 ± 0.012 |
| TGGGTACA | -0.255 ± 0.079 |
| ATCATTTG | -0.078 ± 0.0047 |
| GGGTAATA | -0.228 ± 0.046 |
| CATTGAAG | -0.0634 ± 0.056 |
| TTAGCGAA | 0.11 ± 0.033 |
| CGGCTCGC | 0.129 ± 0.011 |
| CAGCAAAC | -0.00944 ± 0.054 |
| CCCTACTA | -0.16 ± 0.12 |
| GATATGTA | -0.158 ± 0.032 |
| CCGACCAC | 0.0135 ± 0.026 |
| CTGAATTA | -0.0446 ± 0.041 |
| CTGCTAGC | 0.165 ± 0.045 |
| AAATTACT | 0.0627 ± 0.11 |
| AGCGCAAT | 0.165 ± 0.032 |
| ACTAGGAC | -0.157 ± 0.037 |
| AACTCTGA | -0.0644 ± 8.5e-05 |
| AGATCTTG | 0.0314 ± 0.002 |
| AACCAGAA | -0.0398 ± 0.053 |
| GAAAGTGA | 0.293 ± 0.039 |
| CTGCACTA | -0.143 ± 0.036 |

| Sequence | PBM E-score of 8-mer |
| --- | --- |
| AGGCATAA | -0.0385 ± 0.0084 |
| CAATATAG | 0.123 ± 0.0026 |
| CAGAAAGC | -0.145 ± 0.0036 |
| AAGTCCGT | -0.226 ± 0.082 |
| GGTTTAAA | 0.00385 ± 0.043 |
| ACGTCGAA | -0.282 ± 0.012 |
| GTGCACAA | 0.0631 ± 0.03 |
| ATTGTCTG | -0.14 ± 0.011 |
| ATGGTCGG | -0.283 ± 0.032 |
| AGTACCGC | -0.0243 ± 0.026 |
| TAATTGTA | -0.195 ± 0.023 |
| AGAACCTC | -0.254 ± 0.048 |
| CTGGGGAA | 0.00742 ± 0.052 |
| ATCATCAC | 0.326 ± 0.017 |
| CCGTAGCG | -0.206 ± 0.048 |
| ACACCGTA | 0.154 ± 0.0081 |
| ACTTCGCA | 0.326 ± 0.026 |
| CCTCATCC | 0.0715 ± 0.023 |
| CAGGTAGC | -0.11 ± 0.032 |
| TCAAGTGA | 0.1329 ± 0.00054 |
| CTACGGGC | -0.121 ± 0.051 |
| TCTCAGAA | -0.187 ± 0.048 |
| CAATGCGC | 0.0773 ± 0.04 |
| TGGGAAAA | 0.0488 ± 0.15 |
| AAGCATTA | -0.142 ± 0.013 |

| Sequence | PBM E-score of 8-mer |
| --- | --- |
| AATATTGA | -0.146 ± 0.043 |
| CCCTACCC | -0.198 ± 0.082 |
| GACGTGCA | 0.0705 ± 0.07 |
| AGATGACT | -0.237 ± 0.019 |
| AGGCCTCG | -0.0653 ± 0.048 |
| AATATTCG | 0.045 ± 0.067 |
| GCAAACGC | 0.0423 ± 0.015 |
| GACGTATC | -0.23 ± 0.0087 |
| CAATCTCG | 0.062 ± 0.045 |
| AAGGACGA | -0.228 ± 0.029 |
| ATGCTCCA | -0.113 ± 0.012 |
| GAATTCGC | 0.225 ± 0.025 |
| AAAAGAGG | -0.0911 ± 0.049 |
| CGACGCCG | 0.223 ± 0.069 |
| GCTTTGAC | -0.0492 ± 0.03 |
| ACCGGGCC | -0.316 ± 0.077 |
| ACCGACAC | 0.373 ± 0.0082 |
| AGGTATAC | -0.181 ± 0.019 |
| TAGTAGGA | -0.239 ± 0.027 |
| ACTAACAA | 0.152 ± 0.039 |
| TCCAACAA | -0.0144 ± 0.034 |
| CTCCATTA | -0.24 ± 0.052 |
| AGGCAGCA | -0.289 ± 0.0042 |
| AAGGTGAT | 0.384 ± 0.023 |
| CGTGCCAG | 0.074 ± 0.014 |

| Sequence | PBM E-score of 8-mer |
| --- | --- |
| AATATAAT | -0.041 ± 0.066 |
| CCGACGAC | 0.0212 ± 0.0075 |
| ACCACAAA | 0.0425 ± 0.086 |
| CCTTAGAC | -0.0786 ± 0.058 |
| ATCGTCCC | -0.0441 ± 0.051 |
| AACCTCGC | 0.152 ± 0.055 |
| CCCTCCAG | -0.155 ± 0.045 |
| GACCGAGA | -0.0281 ± 0.065 |
| AAGCGTCG | 0.1316 ± 0.00061 |
| GTTGCCGA | -0.0561 ± 0.0099 |
| CCTACGCA | -0.1428 ± 0.0014 |
| CGTCTTCC | -0.0481 ± 0.023 |
| GCCATCAA | -0.0438 ± 0.039 |
| TAACTTGA | -0.136 ± 0.026 |
| AGCCTACT | 0.0364 ± 0.071 |
| AGTCGCTC | -0.0374 ± 0.084 |
| CAGCATTC | -0.0687 ± 0.068 |
| ATCTGAAC | -0.0859 ± 0.069 |
| ACTTCTGG | 0.0934 ± 0.0018 |
| CGATGCTA | -0.161 ± 0.096 |
| CATGACAC | 0.3587 ± 0.0021 |
| CCAACATA | 0.0222 ± 0.06 |
| CAAGTCTG | 0.0682 ± 0.034 |
| CCCTAAGC | -0.117 ± 0.039 |
| CGTGCGCA | 0.155 ± 0.0026 |

| Sequence | PBM E-score of 8-mer |
| --- | --- |
| CAGGGTGA | 0.165 ± 0.08 |
| CGTCTACA | 0.0944 ± 0.046 |
| AACGGATG | -0.0443 ± 0.056 |
| GTTCGGTA | 0.0494 ± 0.029 |
| TGGCCGAA | -0.0438 ± 0.0043 |
| CTCTCATA | -0.181 ± 0.059 |
| GTTACATA | -0.171 ± 0.031 |
| ACTTTGTG | 0.136 ± 0.035 |
| ACCAAATA | -0.238 ± 0.024 |
| CGCCACGA | 0.123 ± 0.035 |
| GCCTGCAC | -0.0663 ± 0.051 |
| ACGCGGGA | -0.0291 ± 0.00045 |
| AGGGGATG | -0.135 ± 0.0024 |
| AAGTAGGC | -0.00358 ± 0.02 |
| AGATGCCG | -0.254 ± 0.013 |
| ACGATGGA | -0.0806 ± 0.066 |
| CGGAACCA | -0.0889 ± 0.05 |
| CGGCCCAA | -0.183 ± 0.0043 |
| ATTGATGA | -0.186 ± 0.0038 |
| GACTAGCC | -0.138 ± 0.088 |
| ACCGCGAG | 0.175 ± 0.062 |
| TTAGTAAA | -0.0914 ± 0.011 |
| CCCATGCA | 0.105 ± 0.005 |
| TCTATAAA | -0.098 ± 0.081 |
| CATCTTAC | -0.252 ± 0.059 |

| Sequence | PBM E-score of 8-mer |
| --- | --- |
| ACAACTAT | 0.161 ± 0.039 |
| AGCATAGG | -0.286 ± 0.0046 |
| CGGATATC | -0.0915 ± 0.077 |
| ATAGTCGA | -0.155 ± 0.026 |
| ACACTAGA | 0.197 ± 0.025 |
| AGGGCTTC | -0.088195 ± 2.1e-05 |
| ATCAAGAT | -0.102 ± 0.0084 |
| GGCCGATA | -0.0792 ± 0.048 |
| ACCTATCG | 0.142 ± 0.07 |
| TTCACGAA | 0.144 ± 0.088 |
| ATGGCTTA | -0.119 ± 0.019 |
| TACTTTAA | 0.0154 ± 0.047 |
| ACAAGGGG | -0.125 ± 0.035 |
| CAGGCCCC | -0.3182 ± 0.0026 |
| CCAATATA | -0.167 ± 0.11 |
| CATTCCGG | -0.196 ± 0.03 |
| GCCATTAC | -0.135 ± 0.09 |
| GCTATAGC | -0.151 ± 0.0042 |
| AAGCTAGG | -0.197 ± 0.064 |
| CCCCAGTC | -0.119 ± 0.018 |
| CAGCAATA | -0.0531 ± 0.095 |
| GCTTGTTA | 0.0822 ± 0.0027 |

Reference: the supplement of paper PMC4166925
